Reference: PMC7819943, “Rice protein-binding microarrays: a tool to detect cis-acting elements near promoter regions in rice”
The other results are listed elsewhere or left out.

biological target: T1, OsWOX13 (Oryza sativa, UniProt Q5QMM3 1-267); experiment: protein-binding microarray (RPBM); PBS, 2% BSA, 51.3 ng/ul salmon testes DNA, 50 uM zinc acetate, 200 nM TF, 25 C, 1 h; high values mean tight binding; settings: protein: recombinant; tags: N-terminal polyhistidine and DsRed monomer fusion (pET32a); label: CyDye5-dUTP incorporated in the synthesized complementary strand; 3' TTTTT single-stranded linker to array surface; dsDNA, one strand shown
T1 sequence: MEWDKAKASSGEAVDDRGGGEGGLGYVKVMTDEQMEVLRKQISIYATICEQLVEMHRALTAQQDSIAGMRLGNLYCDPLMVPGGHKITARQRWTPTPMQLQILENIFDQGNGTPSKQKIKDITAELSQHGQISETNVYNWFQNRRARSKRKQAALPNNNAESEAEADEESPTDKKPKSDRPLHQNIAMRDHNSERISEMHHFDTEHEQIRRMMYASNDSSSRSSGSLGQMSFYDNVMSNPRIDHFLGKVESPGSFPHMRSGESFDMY
Summary of the method: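 An Axon 4000B scanner gave the binding signal as per-feature fluorescence intensity in arbitrary units. This followed washing of a custom Agilent array that had been incubated for 1 h at 25 °C with 200 nM protein in PBS, 2% BSA, salmon testes DNA and 50 µM zinc acetate. The proteins were transcription factors fused at the N-terminus to polyhistidine and DsRed, expressed in E. coli BL21-CodonPlus and purified on Ni–NTA.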

Row | Sequence | binding signal
1 | AAAATTATAGTTACATTATAACTGCATTATAACTACAGTGCGGAGTCACCTAGTGCAG | 5170 fluorescence intensity (a.u.)
2 | TATTACCCGATTCCAATCAGCTGCTAATCGAGTGGTAATCCGGAGTCACCTAGTGCAG | 5980 fluorescence intensity (a.u.)
3 | CCTATTGATTTAAGTTCAAACAAATTATGTGTTGCTTAAACGGAGTCACCTAGTGCAG | 24600 fluorescence intensity (a.u.)
4 | GGTTGGGGAAGGGAAGGGAAGGGAGAGGAGAGGGGCTCGCCGGAGTCACCTAGTGCAG | 6860 fluorescence intensity (a.u.)
5 | TGCCCTTATTTGCCCAATCACTAAGCGGATGATGACTAACCGGAGTCACCTAGTGCAG | 6690 fluorescence intensity (a.u.)
6 | GCGTTTGATTAAGCAAGACGGGTGAGAAATTTTATCCTATCGGAGTCACCTAGTGCAG | 8280 fluorescence intensity (a.u.)
7 | CAGTAATGTGAGCTATGACTGTGTGACAGAAACCCACGGTCGGAGTCACCTAGTGCAG | 3750 fluorescence intensity (a.u.)
8 | TTTGACATACGTATTCTAATTTCATGACAATTACTTAAGGCGGAGTCACCTAGTGCAG | 14800 fluorescence intensity (a.u.)
9 | CAGCATCAAAATGATTGGAGCAGTACTGCAGTGCTACGTTCGGAGTCACCTAGTGCAG | 13100 fluorescence intensity (a.u.)
10 | AATAATTAGTTTATCTATTTTAAGGAGCAAAGTCGGATAACGGAGTCACCTAGTGCAG | 36300 fluorescence intensity (a.u.)
11 | CTGCACTTTGATTAGATTAAGTACACAGAGTTCTTCTGCTCGGAGTCACCTAGTGCAG | 23600 fluorescence intensity (a.u.)
12 | GCACCCATGGAGATTGATTCGCGCAGAGACACCGTGAGGCCGGAGTCACCTAGTGCAG | 3480 fluorescence intensity (a.u.)
13 | TTCAATCAAATTTTAAATTTTAGCGTGAACTAAACACACCCGGAGTCACCTAGTGCAG | 24300 fluorescence intensity (a.u.)
14 | AATGATATCAATCTGAACACCCATGTAAACGGGTGCGAATCGGAGTCACCTAGTGCAG | 9940 fluorescence intensity (a.u.)
15 | GGTTCAATTAGGCCATTTGTTGTAGTCCAGAATGAAGGGCCGGAGTCACCTAGTGCAG | 13500 fluorescence intensity (a.u.)
16 | GCAATAAACTGACCACTTTAATCAATTGTTCATCTCCTTTCGGAGTCACCTAGTGCAG | 10500 fluorescence intensity (a.u.)
17 | CATAATTAGCAAGGCGATCAAAACTGTTGTTTATGTAATACGGAGTCACCTAGTGCAG | 8650 fluorescence intensity (a.u.)
18 | CCACAGCGTGATTTTGATCATTCTATACCACTGTTGCCTGCGGAGTCACCTAGTGCAG | 4960 fluorescence intensity (a.u.)
19 | AAATCAAAATCATTTGCGTCAAATCACATTGGCATGCTCACGGAGTCACCTAGTGCAG | 3160 fluorescence intensity (a.u.)
20 | TCAAACTTATCTAATTTTAACTAAGTATACATAACCCTAGCGGAGTCACCTAGTGCAG | 6800 fluorescence intensity (a.u.)
21 | GATGTTAATGAATGTGATCGCAACCCATGGCCATGCCCTTCGGAGTCACCTAGTGCAG | 4260 fluorescence intensity (a.u.)

Row | Sequence | binding signal
22 | TTGATTCTGGACCTGATTGCACTCTCTCAGTAGGAAGCAGCGGAGTCACCTAGTGCAG | 9750 fluorescence intensity (a.u.)
23 | TCGTGATTGATTGATCGATCGATCACAACCGAGCGTTTTCCGGAGTCACCTAGTGCAG | 47000 fluorescence intensity (a.u.)
24 | CTGATTTAATAATCTAGATTACAATAATATTATTAAGCTGCGGAGTCACCTAGTGCAG | 41500 fluorescence intensity (a.u.)
25 | TGACTCATTATATAATGATGATAATGATATGTGTGTGCTACGGAGTCACCTAGTGCAG | 5620 fluorescence intensity (a.u.)
26 | CAAACAGTTAGCGGGTGATTTGATTTTGATCTATACTTCACGGAGTCACCTAGTGCAG | 15100 fluorescence intensity (a.u.)
27 | CTGATTATATAATTAGGGTAGTCTAATCACGCTCCCACATCGGAGTCACCTAGTGCAG | 48600 fluorescence intensity (a.u.)
28 | CTAAATTAGCGTCAAACATCCGATATGACATGGACTAAAACGGAGTCACCTAGTGCAG | 20200 fluorescence intensity (a.u.)
29 | CAACTTGATTAGTAGTAGTACTAGTTTGATTTTGTCCTGGCGGAGTCACCTAGTGCAG | 54200 fluorescence intensity (a.u.)
30 | ATTTAGACTGCACAAATGCAGGGCCACATGTGTCACGCCCCGGAGTCACCTAGTGCAG | 6010 fluorescence intensity (a.u.)
31 | AGGATTGTTTCTGATGATTTGGGCCCGGAAAGACATAAGGCGGAGTCACCTAGTGCAG | 7510 fluorescence intensity (a.u.)
32 | GCGACCTGATGGATGATGATCGATCGAACCTTCCTGGGTACGGAGTCACCTAGTGCAG | 5270 fluorescence intensity (a.u.)
33 | GTGTTAATGACGGCAAAGTCTCTGTGTGTAACTTTGTATACGGAGTCACCTAGTGCAG | 3420 fluorescence intensity (a.u.)
34 | CTAATTTGATTGGGTATCTGATTCGATCTATACATCAAATCGGAGTCACCTAGTGCAG | 45700 fluorescence intensity (a.u.)
35 | CCCTTGATAGTTTGATATTGGTAGAGATATTATTTTCCCTCGGAGTCACCTAGTGCAG | 17100 fluorescence intensity (a.u.)
36 | TGCCCAATCACACTTGGCTCTAATTCTGCGACTCATCCTTCGGAGTCACCTAGTGCAG | 7510 fluorescence intensity (a.u.)
37 | ATACTTAATTAATGATACGATAATTGAATTTATTCTCTCCCGGAGTCACCTAGTGCAG | 49900 fluorescence intensity (a.u.)
38 | CGACTAAATAGAGAGATCACCGCGTCCATCGGATTGATCGCGGAGTCACCTAGTGCAG | 5290 fluorescence intensity (a.u.)
39 | TGAGTGATTTTATGCATTTGATACCATGGTGCCCATATATCGGAGTCACCTAGTGCAG | 3370 fluorescence intensity (a.u.)
40 | AAGTCGTTGATTAATTTGAGGGAATTATATATGGATCGGTCGGAGTCACCTAGTGCAG | 32900 fluorescence intensity (a.u.)
41 | ATCCTCAAATTACTTTCCATGTATAATAATTTGAAGATGTCGGAGTCACCTAGTGCAG | 5640 fluorescence intensity (a.u.)
42 | TATGATGACGACGATACCATCAAGCTTCATTAATTGCACTCGGAGTCACCTAGTGCAG | 4960 fluorescence intensity (a.u.)
